Data published in PubChem BioAssay (NCATS).
Several values for one entry are separate records, joined by “and”; a condition that tells them apart may be missing. Equal entries are not always repeated. Inconclusive means that the source gave no clear call. Such entries were picked first, then a sample of the others. For some assays here: Potencies beside an inconclusive call are fits to weak or partial responses and may not hold up. Activity calls are given as the source filed them. The call rests on the fitted dose curve; in most records, active means well fitted curve in the direction sought with a large enough effect; inconclusive means small, poorly fitted or top-dose-only effect, or another doubt; inactive means no such curve, though single readings can be large; an effect the other way counts as inactive or inconclusive.

Assays:
[1] = Primary qHTS for small molecule stabilizers of the endoplasmic reticulum resident proteome: Secreted ER Calcium Modulated Protein (SERCaMP) assay (AID 1508630); details: SH-SY5Y GLuc-SERCaMP (Gaussia luciferase released on ER calcium loss) secretion, thapsigargin, luminescence; activity change, negative = inhibition: at 38.4 µM (top of the series); further: potency means the concentration at half of the fitted maximal effect; on activity change, negative = inhibition: on the % scale 0 is the no-effect control and ±100 the full control effect
Method in brief: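 GLuc-SERCaMP-expressing SH-SY5Y cells, pretreated 16 h with compound, are challenged with thapsigargin to empty ER calcium stores; after 4 h, coelenterazine is added directly to the medium and luminescence is imaged.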

[2] = qHTS of pediatric cancer cell lines to identify multiple opportunities for drug repurposing: Primary screen for RD cells (AID 1347104); further: potency means the concentration at half of the fitted maximal effect; nearly all actives have a fitted effect of over 55% in size
Method in brief: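 Viability was measured as metabolically active cells after 48 hours of treatment, read by CellTiter-Glo luminescence. Compounds were tested at multiple final concentrations, giving concentration-response curves.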

[3] = test system: Zika virus NS2B-NS3 protease; assay: Primary screen GU AMC qHTS for Zika virus inhibitors (AID 1347154); further: potency means the concentration at half of the fitted maximal effect; nearly all actives have a fitted effect of over 70% in size
Method in brief: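 Unlinked Zika NS2B hydrophilic domain–NS3 protease complex at 25 nM in 10 mM Tris-HCl pH 8.0, 0.01% Tween 20, with an AMC peptide substrate. Fluorescence change (340/450 nm) over 15 min at room temperature, normalized to controls, fitted to 4-parameter Hill.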

[4] = Quantitative High-Throughput drug screen in 47 multiple myeloma cell lines against the NCATS MIPE library collection: EJM_DSMZ cell viability assay (AID 1918926; further: nearly all actives have a fitted effect of over 30% in size; further: potency means the concentration at half of the fitted maximal effect)
Method in brief: (§1)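 Steps: seed 500 cells per well; pin-transfer MIPE 4.0 library; incubate 48 h at 37C, 5% CO2, humidified; add CellTiter-Glo, 5 min room temperature; read luminescence.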

[5] = Quantitative High-Throughput drug screen in 47 multiple myeloma cell lines against the NCATS MIPE library collection: Karpas620_DSMZ cell viability assay (AID 1918959); further: nearly all actives have a fitted effect of over 30% in size; further: potency means the concentration at half of the fitted maximal effect
Method in brief: (§2)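 Myeloma cell lines, 500 cells per well, exposed to MIPE 4.0 library compounds for 48 h at 37C, 5% CO2. Viability from ATP by CellTiter-Glo luminescence; normalised to DMSO (100%) and media-only (0%) wells.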

[6] = Quantitative High-Throughput drug screen in 47 multiple myeloma cell lines against the NCATS MIPE library collection: KMS12PE_JCRB cell viability assay (AID 1918972); further: nearly all actives have a fitted effect of over 30% in size; further: potency means the concentration at half of the fitted maximal effect
Method in brief: as §2

[7] = Quantitative High-Throughput drug screen in 47 multiple myeloma cell lines against the NCATS MIPE library collection: RPMI8226_ATCC cell viability assay (AID 1919871); further: potency means the concentration at half of the fitted maximal effect; nearly all actives have a fitted effect of over 30% in size
Method in brief: (§3)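 500 cells/well per myeloma line exposed to pinned MIPE 4.0 compounds for 48 h at 37 °C, 5% CO2. Viability read as ATP by CellTiter-Glo luminescence, normalised to DMSO-only (100%) and media-only (0%) wells.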

CASKI = assay: Primary qHTS to identify gynecologic anti-cancer compounds using libraries of approved drugs and bioactive compounds (AID 1345084); details: Gynecologic cancer cell panel viability, ATPlite luminescence, 48 h; activity change, negative = cytotoxicity: at 57.5 µM (top of the series); further: nearly all actives have a fitted effect of over 55% in size; further: potency means the concentration at half of the fitted maximal effect; on activity change, negative = cytotoxicity: on the % scale 0 is the no-effect control and ±100 the full control effect
Method in brief: (§4)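 Luminescence from the ATPlite ATP-monitoring reagent indicates viable cell number; lower signal means cytotoxicity. Cells received compound 16 h after seeding and were exposed for 48 h across five concentrations.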

OV90 = assay: as above; details: Gynecologic cancer cell panel viability, ATPlite luminescence, 48 h; series mostly up to 57.5 µM
Method in brief: as §4

PA-1 = assay: as above; details: Gynecologic cancer cell panel viability, ATPlite luminescence, 48 h; series mostly up to 57.5 µM
Method in brief: as §4

[8] = qHTS Assay for Identifying Gametocytocidal Compounds (AID 743244); further: potency means the concentration at half of the fitted maximal effect;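 on max response: on the % scale 0 is the no-effect control and ±100 the full control effect; actives lower the fluorescent signal which means gametocytes are killed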; details: P. falciparum 3D7 stage III-V gametocytes, alamarBlue, 72 h; max response: stronger effect = lower value
Method in brief: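 Compounds are pinned into medium, gametocytes (stage III–V, 3D7, 20,000 cells/well) added, and plates held 72 h at 37 °C in 5% CO2. AlamarBlue follows for 24 h before fluorescence reading.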

[9] = Quantitative High-Throughput drug screen in 47 multiple myeloma cell lines against the NCATS MIPE library collection: AMO1_DSMZ cell viability assay (AID 1918927)
Method in brief: as §1

[10] = Quantitative High-Throughput drug screen in 47 multiple myeloma cell lines against the NCATS MIPE library collection: ARP1_JJKsccF8 cell viability assay (AID 1918928; further: potency means the concentration at half of the fitted maximal effect; nearly all actives have a fitted effect of over 40% in size); details: ARP1 myeloma cells viability, CellTiter-Glo ATP, 48 h; viability: at 45.8 µM (top of the series)
Method in brief: (§5)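 Myeloma cells at 500 per well in 1536-well format treated with MIPE 4.0 library by pin transfer for 48 h at 37C, 5% CO2. Viability from ATP luminescence (CellTiter-Glo), normalized to DMSO (100%) and media-only (0%) wells.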

[11] = Quantitative High-Throughput drug screen in 47 multiple myeloma cell lines against the NCATS MIPE library collection: KMM1_JCRB cell viability assay (AID 1918960); further: nearly all actives have a fitted effect of over 30% in size; further: potency means the concentration at half of the fitted maximal effect
Method in brief: as §5

[12] = Quantitative High-Throughput drug screen in 47 multiple myeloma cell lines against the NCATS MIPE library collection: KMS12BM_JCRB cell viability assay (AID 1918971); further: nearly all actives have a fitted effect of over 35% in size; further: potency means the concentration at half of the fitted maximal effect
Method in brief: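 Luminescent ATP measurement with CellTiter-Glo gives viability, scaled between DMSO-only wells (100%) and media-only wells (0%). Cells, 500 per well, faced library compounds for 48 hours at 37C.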

[13] = qHTS of pediatric cancer cell lines to identify multiple opportunities for drug repurposing: Primary screen for SK-N-MC cells (AID 1347093); details: SK-N-MC viability, CellTiter-Glo luminescence, 48 h; activity change, negative = cytotoxic: at 46 µM (top of the series); further: potency means the concentration at half of the fitted maximal effect
Method in brief: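 Metabolically active cells were quantified by ATP-dependent luminescence (CellTiter-Glo, 15 min at room temperature) following 48 h treatment. Cells had been plated at 500-1,000 per well and settled for 5 h beforehand.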

[14] = qHTS assay to identify inhibitors of the type 1 interferon - major histocompatibility complex class I in skeletal muscle: Counter screen cell viability and HiBit confirmation (AID 1347412); details: iHSKM muscle cells + IFN-b, HiBiT or CellTiter-Glo, 24 h; Viability; further: potency means the concentration at half of the fitted maximal effect; nearly all actives have a fitted effect of over 60% in size
Method in brief: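 CRISPR HLA-B*08:01-HiBit immortalized human myoblasts (C25cl48) stimulated with 4 ng/ml IFN-beta and compounds (12-point 1:3, top 46 uM final) for 24 h at 37 C. Duplicate plates read by HiBit lytic luminescence or CellTiter Glo ATP.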

[15] = Quantitative High-Throughput drug screen in 47 multiple myeloma cell lines against the NCATS MIPE library collection: U266_ATCC cell viability assay (AID 1919864); further: nearly all actives have a fitted effect of over 35% in size; further: potency means the concentration at half of the fitted maximal effect
Method in brief: as §3

[16] = Quantitative High-Throughput drug screen in 47 multiple myeloma cell lines against the NCATS MIPE library collection: PCM6_Riken cell viability assay (AID 1919870); further: nearly all actives have a fitted effect of over 30% in size; further: potency means the concentration at half of the fitted maximal effect
Method in brief: as §3

[17] = Quantitative High-Throughput drug screen in 47 multiple myeloma cell lines against the NCATS MIPE library collection: KMS11_JCRBsus cell viability assay (AID 1919873); further: nearly all actives have a fitted effect of over 50% in size
Method in brief: as §3
Tags describe the fitted curve by direction and shape.

For `Cc1ccc2c(c1)C(=O)[C@@]1(O)CCN(c3ccccc3)C1=N2`, the Potency [1] was “inactive”.

For `CC(C)=CCCC(C)=CCCC(C)=CCSc1ccccc1C(=O)O`, the Potency [2] was inconclusive: 2.96 µM [cytotoxic, partial curve], the Potency [3] was active: 13.6 µM and the Potency [1] was inconclusive: 0.0335 µM [inhibitor, full curve]. For the same compound, the Potency [4] was inconclusive: 4.69 µM [cytotoxic, partial curve], the Potency [5] was inconclusive: 2.35 µM [cytotoxic, full curve] and the Potency [6] was inconclusive: 13.2 µM [cytotoxic, partial curve]. For the same compound, the Potency [7] was active: 0.418 µM.

In the case of `NC(=O)c1ncn([C@@H]2O[C@H](CO)[C@@H](O)[C@H]2O)c1N`, the Potency [1] is reported as inconclusive: 10 µM [inhibitor, partial curve, poor fit] and the Potency (CASKI) is reported as “inactive”.

For `CC1=C(/C=C/C(C)=C/C=C/C(C)=C/C(=O)Nc2ccc(O)cc2)C(C)(C)CCC1`, the Potency [3] was inconclusive: 28.7 µM [inhibitor, partial curve], the Potency [1] was “inactive and inconclusive: 11.2 µM [inhibitor, partial curve, poor fit] and inconclusive: 31.6 µM [inhibitor, partial curve, poor fit]” and the Potency (CASKI) was inconclusive: 35.5 µM [cytotoxic, single point]. The Potency (OV90) was active: 31.6 µM and the Potency (PA-1) was active: 4.47 µM.

With `C[C@H](NC(=O)Cc1cc(F)cc(F)c1)C(=O)N[C@@H]1C(=O)N(C)c2ccccc2-c2ccccc21` the max response [8] was inactive: -14.2%, the Potency [1] was inconclusive: 8.41 µM [inhibitor, single point] and the Potency [4] was inconclusive: 20.9 µM [cytotoxic, partial curve]. The Potency [9] was inconclusive: 14.8 µM [cytotoxic, partial curve], the Potency [10] was inconclusive: 33.2 µM [cytotoxic, single point] and the Potency [11] was “inactive”. The Potency [12] was “inactive”, the Potency [6] was inconclusive: 23.5 µM [cytotoxic, single point] and the Potency [7] was inconclusive: 0.0019 µM [rising, full curve, poor fit]. For the same compound, the Potency (CASKI) was “inactive”.

For `CN(NC(=O)CC(=O)NN(C)C(=S)c1ccccc1)C(=S)c1ccccc1`, the Potency [8] was inconclusive: 0.0006 µM [inhibitor, full curve, poor fit], the Potency (OV90) was inconclusive: 35.5 µM [cytotoxic, single point] and the Potency (PA-1) was inconclusive: 0.708 µM [cytotoxic, full curve, poor fit].

For `O=C(c1ccc(Nc2nccc(-c3cc4ccccc4s3)n2)cc1)N1CCC(N2CCCC2)CC1`, the Potency [8] was inconclusive: 29.6 µM [inhibitor, single point], the Potency [13] was active: 5.26 µM and the Potency [2] was active: 10.5 µM. For the same compound, the Potency [3] was inconclusive: 21.2 µM [inhibitor, single point], the Potency [11] was active: 5.9 µM and the Potency [6] was active: 1.87 µM. For the same compound, the Potency (PA-1) was inconclusive: 22.4 µM [cytotoxic, partial curve, poor fit] and the Potency [14] was inconclusive: 22.2 µM [cytotoxic, single point].

For `NC(=O)Nc1cc(-c2ccc(CN3CCOCC3)c(F)c2)sc1C(=O)N[C@H]1CCCNC1`, the Potency [8] was active: 18.7 µM.

For `CCC[C@H](NC(=O)C(C#N)=Cc1cccc(Br)n1)c1ccccc1`, the Potency [8] was inconclusive: 23.5 µM [inhibitor, single point], the Potency [9] was inconclusive: 10.5 µM [cytotoxic, single point] and the Potency [11] was inconclusive: 11.8 µM [cytotoxic, single point]. The Potency [6] was inconclusive: 11.8 µM [cytotoxic, single point], the Potency [15] was active: 5.9 µM and the Potency [16] was active: 1.05 µM.

For `NC(=O)c1ccc(-c2nc(-c3ccc4c(c3)OCO4)c(-c3ccccn3)[nH]2)cc1`, the Potency [8] was inconclusive: 46.9 µM [inhibitor, single point], the Potency [3] was inconclusive: 7.64 µM [inhibitor, partial curve] and the Potency [4] was inconclusive: 13.2 µM [cytotoxic, partial curve, poor fit]. The Potency [9] was inconclusive: 11.8 µM [cytotoxic, single point], the Potency [10] was inconclusive: 3.32 µM [cytotoxic, full curve, poor fit] and the Potency [5] was “inactive”. The Potency [12] was inconclusive: 18.7 µM [cytotoxic, partial curve, poor fit], the Potency [6] was “inactive” and the Potency [15] was “inactive”. For the same compound, the Potency [16] was inconclusive: 2.64 µM [cytotoxic, full curve, poor fit] and the Potency [7] was inconclusive: 14.8 µM [cytotoxic, partial curve, poor fit].

With `Cc1c(CCOc2ccc(C(=O)O)cc2)c2cc(Cl)ccc2n1C(c1ccccc1)c1ccccc1` the Potency [2] was inconclusive: 20.9 µM [cytotoxic, partial curve, poor fit], the Potency [4] was “inactive” and the Potency [10] was inconclusive: 10.5 µM [cytotoxic, single point]. For the same compound, the Potency [11] was “inactive”, the Potency [6] was “inactive” and the Potency [16] was “inactive”. The Potency [7] was inconclusive: 29.6 µM [cytotoxic, partial curve, poor fit] and the Potency [17] was “inactive”.
